± gives the standard deviation of the averaged measurements. Some of the results follow.

In the assay the test system is PfAP2-LT AP2 domain (GST-tagged). The assay can be described thus: gcPBM binding intensity (ln(normalized median fluorescence intensity)); higher = stronger DNA binding. Summed up: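 After 1 h on an Agilent 4 × 180k array of primer-extended double-stranded 36-bp intergenic genomic probes and negative controls, bound GST-tagged P. falciparum DNA-binding domains were detected with Alexa488 anti-GST antibody and scanned at 488 nm. The domains had been expressed in E. coli, and binding took place in 1× PBS with 1% milk, 0.2 mg/ml BSA, 0.5% salmon testes DNA and 0.03% Triton X-100. Binding intensity is the highest Masliner-normalised natural-log median intensity across replicate spots of either probe orientation.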
Turning to “AAAAAATGTAAATATAAACAACCAAAGGGGGTATAC [GTGCAC_negctrl_site465]”, the “gcPBM binding intensity (ln)” value amounted to 9.14 ± 0.41.
Under “TTAAAGTATAACTGTACATGCGAGTAAAAGAATGAC [TGCATGCA_site899]” stands 9.09 ± 0.4; under “ATTAAATATATTTTGCGTACACAAAAAAATACGTTC [XGTACX_site3862]”, 8.78 ± 0.42; under “ATAATATTTTATGGTTGTACTTTTAGTTCTTTTTTT [XGTACX_site5756]”, 8.82 ± 0.48.
On to “TACGTGAAGTTATATACACACATAAATATGTCTGTA [CACACA_site7463]”, for which the “gcPBM binding intensity (ln)” value was determined as 8.93 ± 0.34.
Take “GAAAAAAAACACATTGTGCACTTTTCCTTAAGTATA [GTGCAC_site9475]”: the “gcPBM binding intensity (ln)” value was 8.66 ± 0.45.
Next, “TTTTTTTCGTATATTACACACTATATATAGAAATTA [CACACA_site298]”: 8.61 ± 0.38.
Under “GGAGAAAAAAAAAAAAAACACACGGTACATTCAAAG [CACACA_site1503]” stands 8.97 ± 0.54; under “AAAAAAAAAAAGCACACACACATATGCGTATATATA [CACACA_site954]”, 9.51 ± 0.28; under “AAATTATCCAAAAATTGTACTTAAAACAACATAAAA [XGTACX_site6238]”, 8.63 ± 0.51.
Under “TTTCTCTTATTCCAATCTATAATAAGTATCAATATT [CACACA_negctrl_site179]” stands 8.57 ± 0.51; under “ACCATTTGTAGGTAAACACACATTATTCTTAATATC [CACACA_site5453]”, 8.87 ± 0.42.
Consider “ATATATTCATTTTTATGTACGTAAATTGTAAATTGG [XGTACX_site8242]”, for which the “gcPBM binding intensity (ln)” value is 8.77 ± 0.34.
Under “TGCATTATTTTATGAAGTACATATGAACAAAAAATT [XGTACX_site2185]” stands 8.65 ± 0.36; under “AAAATAATAATAAAAAGTACATGTGTATATAATAAA [XGTACX_site754]”, 9.02 ± 0.37.
Under “TATGTTTTTCGGTATGCATGCATATGCTTAATAATA [TGCATGCA_site184]” stands 8.9 ± 0.33; under “AATATTAAACAAATGAAAAAAAAATATATATTATAT [CACACA_negctrl_site742]”, 8.54 ± 0.4.
Under “AATATATATATGATTATATATATATATATATATATA [GTGCAC_negctrl_site290]” stands 9.21 ± 0.13; under “AAAATAACACAAATGGGTACATATTATATTAAATAA [XGTACX_site7027]”, 8.85 ± 0.45; under “TTTAATTAAAATATATGTACATATATATATATATAT [XGTACX_site4517]”, 9.48 ± 0.028.
Turning to “TAATATTTTATTTTTGTTGTGGATCCAAAAAAAAAA [CACACA_negctrl_site846]”, the “gcPBM binding intensity (ln)” value was determined as 8.21 ± 0.43.
Next, “CTATATATTTAAAAAAGTACAAATATAAAAATATAT [XGTACX_site676]”: 8.54 ± 0.39; “AAAAAAAAAAAAAACACACACATATAACATATTTAA [CACACA_site6745]”: 9.3 ± 0.48.
Next, “TGTTTACACTTTTTTTGTACACATAATTTTATTTGA [XGTACX_site3760]”: 8.78 ± 0.45; “TATTCTAGTCTGCTTACACACATATTTATATTTATA [CACACA_site7432]”: 9.15 ± 0.38.
In the case of “ATTTTTTTTTTTTTTTTTTTTTTTTTTTTTTTATGC [CACACA_negctrl_site1018]”, the “gcPBM binding intensity (ln)” value turned out to be 8.51 ± 0.51.
Under TTTTTTTTTTTTGTAGTGCAAATTAAAAATATATGT stands 8.35 ± 0.4; under “ATTTTTTTTAAACGAAGTACAATTTGTGCATTGGAA [XGTACX_site8109]”, 8.45 ± 0.39.
Under “TATATATATATATATGTATGCATGTCCTTTTTTATT [TGCATGCA_site344]” stands 9.88 ± 0.085; under “AATATATGGTTTCATGATATAAAATTCAATTTAATG [GTGCAC_negctrl_site610]”, 8.41 ± 0.42; under “TGTTTATCATATTTGTGTCCTCATTTTTTAGTATCA [XGTACX_site947]”, 8.9 ± 0.47.
Next, “ACAAAAAAAAAGGAAACACACAAAAAAAAAAAATAA [CACACA_site3523]”: 8.89 ± 0.6; “ACTATATTTCTATAATGTACAAAAATAAATCATATG [XGTACX_site3337]”: 8.64 ± 0.39; “ACCTATAAAAAATAATGTACAGGAAGAAATATAAGG [XGTACX_site5822]”: 8.95 ± 0.46.
As to “TAATTTACACCTACGTGTACACACAAAAATATGTTT [XGTACX_site1868]”, the “gcPBM binding intensity (ln)” value came to 9.1 ± 0.38.
Under “TTTATTATCAAGATTGCACACCCTTATGAACTTTTT [CACACA_site3166]” stands 9.02 ± 0.5; under “AAAAAAAAAAAAAATACACACAAACACAAATTAAAT [CACACA_site5982]”, 9.32 ± 0.49.
Next, “GTAATATTATAATATACACACATAGAATATATATAT [CACACA_site413]”: 9.06 ± 0.39.
Under “AAGATCATATATTCGTGGGTATAAAAAGTTATAATA [TGCATGCA_negctrl_site439]” stands 8.54 ± 0.48; under “AGAAATATGTTGAAGCATTTATAATGTAGATATAAG [GTGCAC_negctrl_site640]”, 8.71 ± 0.53; under “TATCATTTTGAAGTATGTACTTATTTTATTAAAATA [XGTACX_site7784]”, 8.46 ± 0.4.
Take “ATTATATTAAAATATTCACACACTAACGTAAATCAT [CACACA_site8887]”: the “gcPBM binding intensity (ln)” value stood at 8.9 ± 0.39.
Under “TAAATACATAAATACACACACATATATATATATATA [CACACA_site5549]” stands 10.1 ± 0.43.

(Values after the supplement of paper PMC11417369.)
